Assay results: PubChem BioAssay AID1347165 (National Center for Advancing Translational Sciences (NCATS), 2019)
In all, about 220,000 compounds went through this assay and about 5,700 (2.6%) were called active. The shares of active, inactive and inconclusive entries below differ from those in the screen. Calls come from the whole dose curve; as a rule, active = well fitted inhibition curve with a large enough effect; inconclusive = small, poorly fitted or top-dose-only effect; inactive = no such curve, though single readings can be large or run the other way. Where the call is inconclusive, the potency comes from a doubtful curve fit.

Biological target: Lysine-specific demethylase 5B (Homo sapiens) (UniProt Q9UGL1)
Chain of UniProt Q9UGL1 (Q9UGL1 whole entry, looked up): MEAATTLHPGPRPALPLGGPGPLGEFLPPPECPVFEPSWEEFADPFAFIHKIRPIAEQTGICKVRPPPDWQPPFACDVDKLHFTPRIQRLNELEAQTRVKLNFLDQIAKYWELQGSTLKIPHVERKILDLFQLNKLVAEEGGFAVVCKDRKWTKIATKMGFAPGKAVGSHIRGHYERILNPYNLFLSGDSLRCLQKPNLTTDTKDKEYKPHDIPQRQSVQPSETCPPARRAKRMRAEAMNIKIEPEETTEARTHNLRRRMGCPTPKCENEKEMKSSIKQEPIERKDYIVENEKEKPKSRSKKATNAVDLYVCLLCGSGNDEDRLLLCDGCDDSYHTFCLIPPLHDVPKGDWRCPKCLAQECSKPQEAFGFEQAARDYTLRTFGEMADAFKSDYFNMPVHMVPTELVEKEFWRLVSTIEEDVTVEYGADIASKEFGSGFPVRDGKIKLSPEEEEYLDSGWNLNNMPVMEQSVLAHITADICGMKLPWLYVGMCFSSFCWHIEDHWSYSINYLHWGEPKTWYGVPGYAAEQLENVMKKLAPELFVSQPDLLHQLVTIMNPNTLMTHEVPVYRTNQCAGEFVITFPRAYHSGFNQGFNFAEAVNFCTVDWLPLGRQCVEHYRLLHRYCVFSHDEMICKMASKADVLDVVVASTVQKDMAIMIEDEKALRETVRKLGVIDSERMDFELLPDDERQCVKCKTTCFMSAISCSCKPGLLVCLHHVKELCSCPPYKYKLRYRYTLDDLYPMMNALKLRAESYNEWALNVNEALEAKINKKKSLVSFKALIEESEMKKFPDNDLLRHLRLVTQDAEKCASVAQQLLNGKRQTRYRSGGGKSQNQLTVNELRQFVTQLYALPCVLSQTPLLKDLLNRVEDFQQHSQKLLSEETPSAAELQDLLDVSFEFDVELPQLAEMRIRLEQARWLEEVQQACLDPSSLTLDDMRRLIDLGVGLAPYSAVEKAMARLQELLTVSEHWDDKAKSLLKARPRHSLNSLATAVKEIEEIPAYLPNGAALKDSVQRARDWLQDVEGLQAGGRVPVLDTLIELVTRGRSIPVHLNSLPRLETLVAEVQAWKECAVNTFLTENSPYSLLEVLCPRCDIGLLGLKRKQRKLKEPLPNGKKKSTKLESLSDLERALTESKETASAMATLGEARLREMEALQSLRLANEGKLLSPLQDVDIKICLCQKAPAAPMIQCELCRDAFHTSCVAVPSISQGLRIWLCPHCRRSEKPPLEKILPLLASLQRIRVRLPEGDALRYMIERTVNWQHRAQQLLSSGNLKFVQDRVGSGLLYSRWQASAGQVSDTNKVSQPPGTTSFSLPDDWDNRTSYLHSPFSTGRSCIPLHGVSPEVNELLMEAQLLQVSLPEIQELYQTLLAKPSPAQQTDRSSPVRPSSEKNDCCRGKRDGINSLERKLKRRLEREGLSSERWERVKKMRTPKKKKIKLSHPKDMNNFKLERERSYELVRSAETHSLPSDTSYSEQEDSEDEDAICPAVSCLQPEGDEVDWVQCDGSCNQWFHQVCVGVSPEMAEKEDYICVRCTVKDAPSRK
Experiment: Primary screen for KDM5B Histone Demethylases FDH-coupled qHTS; note: nearly all actives have a fitted effect of over 70% in size; for activity change, negative = inhibition: 0% is about no effect
Settings: FDH-coupled NADH fluorescence (FDH is formaldehyde dehydrogenase); activity change, negative = inhibition: at 57.7 µM (top of the series) unless noted
Summary of the method: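 KDM5BΔAP (200 nM final) in 50 mM HEPES pH 7.5, 0.01% Tween-20 was preincubated 10 min at RT with compound over a concentration range. Substrate mix (H3K4me3 12.5 µM, α-KG 25 µM, Fe²⁺, ascorbate, NAD⁺, FDH) was added, and NADH fluorescence change over 30 min gave dose-response curves.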
Potency is the fitted concentration of half-maximal effect; tags give direction and shape of the fitted curve.

Q: Which Potency does the source give for `CC(C)CCN(CC(=O)Nc1cccc2ncccc12)C1CC1` here?
A: The Potency was “inactive”.

Q: For `CCOc1ccc(Nc2oc(/C=C/c3cc(OC)c(OC)c(OC)c3)nc2C#N)cc1`, which Potency is on record?
A: The Potency was inconclusive: 39.8 µM [inhibitor, single point].

Q: How did the Potency turn out when `O=C(COC(=O)c1cc(-c2cccs2)nc2ccccc12)c1ccc(Cl)cc1` was run?
A: Its Potency is inconclusive: 1.78 µM [inhibitor, partial curve, poor fit].

Q: `Cc1[nH]cnc1-c1nccn1CC(CO)Cc1cccs1` (stereo not drawn) was tested. Which Potency did it give?
A: The Potency was “inactive”.

Q: For `Cc1noc(-c2cccn3c(CNC(=O)c4cccc(Cl)c4)nnc23)n1`, which Potency is on record?
A: Its Potency is active: 14.1 µM.

Q: How did the Potency turn out when `O=C(NCCC1CCN(C(=O)Nc2cccc(F)c2)CC1)c1ccoc1` was run?
A: Its Potency is “inactive”.

Q: With `COc1cc(OC)cc(-c2onc(C)c2C(=O)NCCOc2ccccc2)c1` as the compound, how does the Potency read?
A: Its Potency is “inactive”.

Q: How did the Potency turn out when `CNC(=O)N1C[C@@H](CN(C)C)[C@H](NS(=O)(=O)c2ccc3c(c2)CCC3)C1` was run?
A: Its Potency is inconclusive: 20 µM [inhibitor, partial curve, poor fit].

Q: `N#Cc1ccc(CN2C[C@@H]3C(=O)N(CCN4CCc5ccccc5C4)C(=O)[C@@H]3C2)cc1` was tested. Which Potency did it give?
A: Its Potency is active: 25.1 µM.

Q: With `CCOC(=O)c1sc(NC(=O)c2nc3nc(C)cc(C(F)F)n3n2)c(C(=O)OC)c1C` as the compound, how does the activity change, negative = inhibition read?
A: Its activity change, negative = inhibition is inconclusive: -30.7% [inhibitor].

Q: For `Cc1ccccc1C(=O)Nc1sc(C)c(C)c1C#N`, which Potency is on record?
A: The Potency was “inactive”.

Q: For `CC(C(=O)N(C)C)N1CCc2onc(C(c3ccccc3)c3ccccc3)c2C1` (stereo not drawn), which Potency is on record?
A: Its Potency is inconclusive: 10 µM [inhibitor, partial curve, poor fit].

Q: How did the Potency turn out when `Cc1ccc(CCNC(=O)CN2N=C(c3ccc(C)cc3)CCC2=O)cc1` was run?
A: The Potency was inconclusive: 1.12 µM [inhibitor, partial curve, poor fit].

Q: With `CCNc1c(NC(=O)NCCc2ccccc2)c(=O)oc2ccccc12` as the compound, how does the Potency read?
A: Its Potency is “inactive”.

Q: Which Potency does the source give for `CCCCN(Cc1ccccc1)c1ccc(C(=O)O)cc1NS(=O)(=O)c1ccc(C)c(C)c1` here?
A: The Potency was inconclusive: 22.4 µM [inhibitor, single point].

Q: How did the Potency turn out when `CC(=O)c1ccc(NC(=O)CCc2ncc(-c3ccc(C)cc3)o2)cc1` was run?
A: The Potency was “inactive”.

Q: With `CC(=O)c1cccc(NC(=O)C(C)Oc2ccc3c(C)cc(=O)oc3c2)c1` (stereo not drawn) as the compound, how does the Potency read?
A: Its Potency is inconclusive: 20 µM [inhibitor, partial curve, poor fit].

Q: For `O=C(NC1CCCN(c2nc3ncccc3o2)C1)c1ccc(F)cc1` (stereo not drawn), which Potency is on record?
A: The Potency was inconclusive: 28.2 µM [inhibitor, partial curve].

Q: With `COc1ccc(NC(=O)c2oc3ccccc3c2NC(=O)Cc2ccc(F)cc2)c(OC)c1` as the compound, how does the Potency read?
A: The Potency was inconclusive: 2 µM [inhibitor, partial curve, poor fit].

Q: For `CC(C)N1C[C@H](O)C[C@H]1c1nnc2n1CCN(C(=O)c1cccn1C)CC2`, which Potency is on record?
A: The Potency was inconclusive: 17.8 µM [inhibitor, partial curve, poor fit].

Q: With `O=C(CC1N=C2c3ccccc3N=C(SCc3ccccc3Cl)N2C1=O)NC1CCCCC1` (stereo not drawn) as the compound, how does the Potency read?
A: The Potency was inconclusive: 39.8 µM [inhibitor, single point].

Q: How did the Potency turn out when `CN1[C@@H](CCC(=O)N2CCN(c3ccccc3)CC2)CNC(=O)[C@H]2NCC[C@H]21` was run?
A: The Potency was “inactive”.

Q: `CCCCNc1nc(-c2c(N)n(CCC)c(=O)n(C)c2=O)cs1` was tested. Which Potency did it give?
A: The Potency was inconclusive: 25.1 µM [inhibitor, single point].

Q: For `COc1ccc(Cl)cc1-n1c(CCC(=O)O)ccc1-c1ccc(C)cc1`, which Potency is on record?
A: Its Potency is inconclusive: 25.1 µM [inhibitor, partial curve, poor fit].

Q: With `O=C(N[C@H]1C[C@H]2C(=O)NC[C@@H](CCC(=O)N3CCc4ccccc43)N2C1)c1ccc(F)c(Cl)c1` as the compound, how does the Potency read?
A: Its Potency is inconclusive: 20 µM [inhibitor, partial curve, poor fit].

Q: Which Potency does the source give for `Cc1oc2cc(OCC(=O)O)ccc2c(=O)c1Oc1ccccc1` here?
A: The Potency was inconclusive: 39.8 µM [inhibitor, single point].

Q: For `COc1ccc2c(=O)c(-c3ccccc3)coc2c1C`, which Potency is on record?
A: The Potency was inconclusive: 20 µM [inhibitor, single point].

Q: `Cc1ccc(NC(=O)c2ccc3c(c2)N(C)C2CCCCN2C3=O)cc1F` (stereo not drawn) was tested. Which Potency did it give?
A: Its Potency is inconclusive: 22.4 µM [inhibitor, partial curve, poor fit].

Q: With `COCCNC(=O)[C@@H]1C[C@@H](O)CN1C1CCN(C(=O)c2ccc3ncccc3c2)CC1` as the compound, how does the Potency read?
A: Its Potency is inconclusive: 15.8 µM [inhibitor, partial curve].

Q: `CC(=O)N/N=C/c1cc(Cl)ccc1OCCCOc1ccccc1C` was tested. Which Potency did it give?
A: Its Potency is “inactive”.

Q: Which Potency does the source give for `O=C(Nc1ccc(F)cc1)c1cnn2ncccc12` here?
A: Its Potency is inconclusive: 31.6 µM [inhibitor, single point].

Q: Which Potency does the source give for `O=C(Nc1ccc2nc[nH]c(=O)c2c1)c1ccc(Br)cc1Cl` here?
A: Its Potency is “inactive”.

Q: Which Potency does the source give for `CCS(=O)(=O)c1c(Nc2ccc(F)c(Cl)c2)sc(C(=O)c2ccccc2)c1N` here?
A: The Potency was inconclusive: 31.6 µM [inhibitor, single point].

Q: With `COc1ncc(-c2ccc3ncn(C4CC4)c(=O)c3n2)cn1` as the compound, how does the Potency read?
A: The Potency was active: 31.6 µM.

Q: For `CCCCCSc1nnc2c(n1)OC(c1ccc(C)s1)N(C(C)=O)c1ccccc1-2` (stereo not drawn), which Potency is on record?
A: Its Potency is inconclusive: 31.6 µM [inhibitor, partial curve, poor fit].

Q: Which Potency does the source give for `COc1cc(OC)cc(C(=O)Nc2ccc3c(c2)CN(Cc2ccccc2)C(=O)C(C)O3)c1` (stereo not drawn) here?
A: Its Potency is inconclusive: 35.5 µM [inhibitor, single point].

Q: With `O=C(Cn1ccn2nc(-c3ccc(F)cc3)c(CO)c2c1=O)Nc1ccc(Br)cc1` as the compound, how does the Potency read?
A: Its Potency is inconclusive: 25.1 µM [inhibitor, single point].

Q: How did the Potency turn out when `Cc1noc2c(-c3ccncc3)cc(-c3cccs3)nc12` was run?
A: The Potency was active: 5.62 µM.

Q: Which Potency does the source give for `CCc1nc(-c2c3n(c(=O)n(Cc4ccc(C)cc4)c2=O)CCCC3)no1` here?
A: Its Potency is “inactive”.

Q: With `O=C(CN1Cc2nc(Nc3ccc(C(F)(F)F)cc3)ccc2OCC1=O)N1CCCC1` as the compound, how does the Potency read?
A: The Potency was inconclusive: 39.8 µM [inhibitor, partial curve, poor fit].

Q: `CC(c1nnc(-c2cccs2)o1)N(C)Cc1ccc(Br)cc1` (stereo not drawn) was tested. Which Potency did it give?
A: The Potency was “inactive”.

Q: How did the Potency turn out when `Cc1cccc(OCC2(CNC(=O)c3cnccn3)C[C@@H](O)[C@@H](O)C2)n1` (stereo partly drawn) was run?
A: Its Potency is inconclusive: 35.5 µM [inhibitor, partial curve, poor fit].

Q: With `Cc1cc(C)cc(C(=O)Nc2ccc(-c3cn4cccnc4n3)cc2)c1` as the compound, how does the Potency read?
A: The Potency was inconclusive: 35.5 µM [inhibitor, partial curve, poor fit].
